# The other results are listed elsewhere or left out.
# Assays:
# Test in all cases: glycan array binding signal (z-score within array); higher = stronger binding
# Conditions in all cases: glycan notation: IUPAC condensed, linker removed
# [1] = molecular target: GlcNAc(b1-3)Gal(b1-4)GlcNAc(b1-3)Gal(b1-4)GlcNAc(b1-3)Gal(b1-4)GlcNAc(b1-2)Man(a1-3)[GlcNAc(b1-3)Gal(b1-4)GlcNAc(b1-3)Gal(b1-4)GlcNAc(b1-3)Gal(b1-4)GlcNAc(b1-2)Man(a1-6)]Man(b1-4)GlcNAc(b1-4)GlcNAc
# Summary of the method: (§1)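 Negative Z-scores can be read as non-binding. The Z-score is calculated within each array and then averaged across arrays of one protein sequence at different concentrations or buffers and across linkers. Arrays, 3228 in all, were curated from the Consortium for Functional Glycomics database and kept only where the protein sequence was available.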
# [2] = molecular target: GlcNAc(b1-3)Gal(b1-4)GlcNAc(b1-3)Gal(b1-4)GlcNAc(b1-3)Gal(b1-4)GlcNAc(b1-2)Man(a1-3)[GlcNAc(b1-3)Gal(b1-4)GlcNAc(b1-3)Gal(b1-4)GlcNAc(b1-3)Gal(b1-4)GlcNAc(b1-2)Man(a1-6)]Man(b1-4)GlcNAc(b1-4)[Fuc(a1-6)]GlcNAc
# Summary of the method: as §1
# [3] = molecular target: GlcNAc(b1-3)Gal(b1-4)GlcNAc(b1-3)Gal(b1-4)GlcNAc(b1-3)Gal(b1-4)GlcNAc(b1-2)[GlcNAc(b1-3)Gal(b1-4)GlcNAc(b1-3)Gal(b1-4)GlcNAc(b1-3)Gal(b1-4)GlcNAc(b1-6)]Man(a1-6)[GlcNAc(b1-3)Gal(b1-4)GlcNAc(b1-3)Gal(b1-4)GlcNAc(b1-3)Gal(b1-4)GlcNAc(b1-2)Man(a1-3)]Man(b1-4)GlcNAc(b1-4)[Fuc(a1-6)]GlcNAc
# Summary of the method: as §1
# [4] = molecular target: GlcNAc(b1-3)Gal(b1-4)GlcNAc(b1-3)Gal(b1-4)GlcNAc(b1-3)Gal(b1-4)GlcNAc(b1-3)Gal(b1-4)GlcNAc(b1-2)Man(a1-3)[GlcNAc(b1-3)Gal(b1-4)GlcNAc(b1-3)Gal(b1-4)GlcNAc(b1-3)Gal(b1-4)GlcNAc(b1-3)Gal(b1-4)GlcNAc(b1-2)Man(a1-6)]Man(b1-4)GlcNAc(b1-4)GlcNAc
# Summary of the method: as §1
# [5] = molecular target: GlcNAc(b1-3)Gal(b1-4)GlcNAc(b1-3)Gal(b1-4)GlcNAc(b1-3)Gal(b1-4)GlcNAc(b1-3)Gal(b1-4)GlcNAc(b1-2)Man(a1-3)[GlcNAc(b1-3)Gal(b1-4)GlcNAc(b1-3)Gal(b1-4)GlcNAc(b1-3)Gal(b1-4)GlcNAc(b1-3)Gal(b1-4)GlcNAc(b1-2)Man(a1-6)]Man(b1-4)GlcNAc(b1-4)[Fuc(a1-6)]GlcNAc
# Summary of the method: as §1
# [6] = molecular target: GlcNAc(b1-3)Gal(b1-4)GlcNAc(b1-3)Gal(b1-4)GlcNAc(b1-3)Gal(b1-4)GlcNAc(b1-3)Gal(b1-4)GlcNAc(b1-2)[GlcNAc(b1-3)Gal(b1-4)GlcNAc(b1-3)Gal(b1-4)GlcNAc(b1-3)Gal(b1-4)GlcNAc(b1-3)Gal(b1-4)GlcNAc(b1-6)]Man(a1-6)[GlcNAc(b1-3)Gal(b1-4)GlcNAc(b1-3)Gal(b1-4)GlcNAc(b1-3)Gal(b1-4)GlcNAc(b1-3)Gal(b1-4)GlcNAc(b1-2)Man(a1-3)]Man(b1-4)GlcNAc(b1-4)[Fuc(a1-6)]GlcNAc
# Summary of the method: as §1
# [7] = molecular target: GlcNAc(b1-3)Gal(b1-4)GlcNAc(b1-3)Gal(b1-4)GlcNAc(b1-3)GalNAc
# Summary of the method: as §1
# [8] = molecular target: GlcNAc(b1-3)Gal(b1-4)GlcNAc(b1-3)GalNAc
# Summary of the method: as §1
# [9] = molecular target: GlcNAc(b1-3)Gal(b1-4)GlcNAc(b1-3)[GlcNAc(b1-3)Gal(b1-4)GlcNAc(b1-3)]GalNAc
# Summary of the method: as §1
# [10] = molecular target: GlcNAc(b1-3)Gal(b1-4)GlcNAc(b1-6)[Gal(b1-3)]GalNAc
# Summary of the method: as §1
# [11] = molecular target: GlcNAc(b1-3)Gal(b1-4)GlcNAc(b1-6)[GlcNAc(b1-3)Gal(b1-3)]GalNAc
# Summary of the method: as §1
# [12] = molecular target: GlcNAc(b1-3)Gal(b1-4)GlcNAc(b1-6)[GlcNAc(b1-3)]Gal(b1-4)GlcNAc
# Summary of the method: as §1
# GlcNAc(b1-3)GalNAc = molecular target: GlcNAc(b1-3)GalNAc
# Summary of the method: as §1
# GlcNAc(b1-3)Man = molecular target: GlcNAc(b1-3)Man
# Summary of the method: as §1
# [13] = molecular target: GlcNAc(b1-3)[GlcNAc(b1-4)][GlcNAc(b1-6)]GlcNAc
# Summary of the method: as §1
# [14] = molecular target: GlcNAc(b1-3)[GlcNAc(b1-6)]Gal(b1-4)GlcNAc
# Summary of the method: as §1
# [15] = molecular target: GlcNAc(b1-3)[GlcNAc(b1-6)]GalNAc
# Summary of the method: as §1
# [16] = molecular target: GlcNAc(b1-4)Gal(b1-4)GlcNAc
# Summary of the method: as §1
# GlcNAc(b1-4)GlcNAc = molecular target: GlcNAc(b1-4)GlcNAc
# Summary of the method: as §1
# [17] = molecular target: GlcNAc(b1-4)GlcNAc(b1-4)GlcNAc
# Summary of the method: as §1
# [18] = molecular target: GlcNAc(b1-4)GlcNAc(b1-4)GlcNAc(b1-4)GlcNAc(b1-4)GlcNAc
# Summary of the method: as §1
# [19] = molecular target: GlcNAc(b1-4)GlcNAc(b1-4)GlcNAc(b1-4)GlcNAc(b1-4)GlcNAc(b1-4)GlcNAc
# Summary of the method: as §1
# [20] = molecular target: GlcNAc(b1-4)[GlcNAc(b1-6)]GalNAc
# Summary of the method: as §1
# [21] = molecular target: GlcNAc(b1-6)Gal(b1-4)GlcNAc
# Summary of the method: as §1
# GlcNAc(b1-6)GalNAc = molecular target: GlcNAc(b1-6)GalNAc
# Summary of the method: as §1
# GlcNAc3Prop(b1-4)GlcNAc = molecular target: GlcNAc3Prop(b1-4)GlcNAc
# Summary of the method: as §1
# [22] = molecular target: GlcNAc6S(b1-3)Gal(b1-4)GlcNAc
# Summary of the method: as §1
# Kdn(a2-3)Gal(b1-3)GalNAc = molecular target: Kdn(a2-3)Gal(b1-3)GalNAc
# Summary of the method: as §1
# Kdn(a2-3)Gal(b1-3)GlcNAc = molecular target: Kdn(a2-3)Gal(b1-3)GlcNAc
# Summary of the method: as §1
# Kdn(a2-3)Gal(b1-4)Glc = molecular target: Kdn(a2-3)Gal(b1-4)Glc
# Summary of the method: as §1
# Kdn(a2-3)Gal(b1-4)GlcNAc = molecular target: Kdn(a2-3)Gal(b1-4)GlcNAc
# Summary of the method: as §1
# [23] = molecular target: Kdn(a2-3)Gal(b1-4)[Fuc(a1-3)]GlcNAc
# Summary of the method: as §1
# Kdn(a2-6)Gal(b1-4)GlcNAc = molecular target: Kdn(a2-6)Gal(b1-4)GlcNAc
# Summary of the method: as §1
# [24] = molecular target: Man(a1-2)Man(a1-2)Man(a1-3)Man
# Summary of the method: as §1
# [25] = molecular target: Man(a1-2)Man(a1-2)Man(a1-6)[Man(a1-3)]Man
# Summary of the method: as §1
# Man(a1-2)Man(a1-3)Man = molecular target: Man(a1-2)Man(a1-3)Man
# Summary of the method: as §1
# [26] = molecular target: Man(a1-2)Man(a1-3)[Man(a1-2)Man(a1-6)]Man
# Summary of the method: as §1
# [27] = molecular target: Man(a1-2)Man(a1-3)[Man(a1-2)Man(a1-6)]Man(a1-6)[Man(a1-2)Man(a1-2)Man(a1-3)]Man
# Summary of the method: as §1
# [28] = molecular target: Man(a1-2)Man(a1-3)[Man(a1-2)Man(a1-6)]Man(a1-6)[Man(a1-2)Man(a1-2)Man(a1-3)]Man(b1-4)GlcNAc(b1-4)GlcNAc
# Summary of the method: as §1
# [29] = molecular target: Man(a1-2)Man(a1-3)[Man(a1-6)]Man(a1-6)[Man(a1-2)Man(a1-3)]Man(b1-4)GlcNAc(b1-4)GlcNAc
# Summary of the method: as §1
# [30] = molecular target: Man(a1-2)Man(a1-6)[Man(a1-3)]Man(a1-6)[Man(a1-2)Man(a1-2)Man(a1-3)]Man
# Summary of the method: as §1
# [31] = molecular target: Man(a1-2)Man(a1-6)[Man(a1-3)]Man(a1-6)[Man(a1-2)Man(a1-2)Man(a1-3)]Man(b1-4)GlcNAc(b1-4)GlcNAc
# Summary of the method: as §1
# Man(a1-3)[Man(a1-6)]Man = molecular target: Man(a1-3)[Man(a1-6)]Man
# Summary of the method: as §1
# [32] = molecular target: Man(a1-3)[Man(a1-6)]Man(a1-6)[Man(a1-2)Man(a1-3)]Man(b1-4)GlcNAc(b1-4)GlcNAc
# Summary of the method: as §1
# [33] = molecular target: Man(a1-3)[Man(a1-6)]Man(a1-6)[Man(a1-3)]Man
# Summary of the method: as §1
binder,measurement,setting,value
OrysaEULS2 (Oryza sativa) (protein) MVYCRANPNYAMTARNGAVVLAPANPKDEYQHWIKDMRWSTSIKDEEGYPAFALVNKATGQAIKHSLGQSHPVRLVPYNPEVMDESVLWTESRDVGNGFRCIRMVNNIYLNFDAFHGDKYHGGVRDGTDIVLWKWCEGDNQRWKIQPYYILEQKLISEEDLNSAVDHHHHHH,glycan array binding signal (z-score),[1],0.247
same,glycan array binding signal (z-score),[2],-0.037
same,glycan array binding signal (z-score),[3],-0.038
same,glycan array binding signal (z-score),[4],0.451
same,glycan array binding signal (z-score),[5],0.29
same,glycan array binding signal (z-score),[6],-0.196
same,glycan array binding signal (z-score),[7],-0.221
same,glycan array binding signal (z-score),[8],-0.247
same,glycan array binding signal (z-score),[9],-0.281
same,glycan array binding signal (z-score),[10],-0.27
same,glycan array binding signal (z-score),[11],-0.224
same,glycan array binding signal (z-score),[12],-0.231
same,glycan array binding signal (z-score),GlcNAc(b1-3)GalNAc,-0.203
same,glycan array binding signal (z-score),GlcNAc(b1-3)Man,-0.189
same,glycan array binding signal (z-score),[13],-0.183
same,glycan array binding signal (z-score),[14],-0.186
same,glycan array binding signal (z-score),[15],-0.192
same,glycan array binding signal (z-score),[16],-0.155
same,glycan array binding signal (z-score),GlcNAc(b1-4)GlcNAc,-0.193
same,glycan array binding signal (z-score),[17],-0.185
same,glycan array binding signal (z-score),[18],-0.188
same,glycan array binding signal (z-score),[19],-0.215
same,glycan array binding signal (z-score),[20],-0.19
same,glycan array binding signal (z-score),[21],-0.155
same,glycan array binding signal (z-score),GlcNAc(b1-6)GalNAc,-0.189
same,glycan array binding signal (z-score),GlcNAc3Prop(b1-4)GlcNAc,-0.154
same,glycan array binding signal (z-score),[22],-0.18
same,glycan array binding signal (z-score),Kdn(a2-3)Gal(b1-3)GalNAc,-0.167
same,glycan array binding signal (z-score),Kdn(a2-3)Gal(b1-3)GlcNAc,-0.204
same,glycan array binding signal (z-score),Kdn(a2-3)Gal(b1-4)Glc,-0.226
same,glycan array binding signal (z-score),Kdn(a2-3)Gal(b1-4)GlcNAc,-0.203
same,glycan array binding signal (z-score),[23],-0.187
same,glycan array binding signal (z-score),Kdn(a2-6)Gal(b1-4)GlcNAc,-0.203
same,glycan array binding signal (z-score),[24],-0.223
same,glycan array binding signal (z-score),[25],-0.201
same,glycan array binding signal (z-score),Man(a1-2)Man(a1-3)Man,-0.196
same,glycan array binding signal (z-score),[26],-0.23
same,glycan array binding signal (z-score),[27],-0.171
same,glycan array binding signal (z-score),[28],0.796
same,glycan array binding signal (z-score),[29],1.35
same,glycan array binding signal (z-score),[30],-0.185
same,glycan array binding signal (z-score),[31],1.51
same,glycan array binding signal (z-score),Man(a1-3)[Man(a1-6)]Man,-0.198
same,glycan array binding signal (z-score),[32],4.8
same,glycan array binding signal (z-score),[33],-0.198
